# Data from patent US20110039874A1 (Northeastern University, priority 2007, published 2011).
# Molecular target: T1, Monoacylglycerol lipase (MGL) (Rattus norvegicus, UniProt Q8R431)
# T1 sequence (Q8R431 1-303): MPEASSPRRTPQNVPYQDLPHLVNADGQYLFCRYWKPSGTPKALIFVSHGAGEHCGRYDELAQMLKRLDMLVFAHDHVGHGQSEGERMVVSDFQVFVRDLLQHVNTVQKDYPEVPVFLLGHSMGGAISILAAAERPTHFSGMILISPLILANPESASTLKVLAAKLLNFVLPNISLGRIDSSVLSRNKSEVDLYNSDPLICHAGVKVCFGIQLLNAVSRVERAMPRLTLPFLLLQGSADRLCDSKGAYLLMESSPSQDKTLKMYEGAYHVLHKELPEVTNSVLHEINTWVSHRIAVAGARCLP
# Details: 100 µM
row,inhibition [%],Compound
1,3,"O=C(CCCCOc1ccccc1)C(F)(F)F [Compound 23.12, 1,1,1-Trifluoro-6-phenoxy-2-hexanone]"
2,17,"O=C(CCCCCOc1ccc(O)cc1)C(F)(F)F [Compound 24.3, 1,1,1-Trifluoro-7-[4-(hydroxy)phenoxy]-2-heptanone]"
3,18,CC(=O)c1cccc(-c2ccc(NC(=O)OC3C4CC5CC(C4)CC3C5)cc2)c1 (stereo not shown) [Compound 53.32]
4,88,O=C(Nc1ccc([N+](=O)[O-])cc1)OC1C2CC3CC(C2)CC1C3 (stereo not shown) [Compound 53.5]
5,22,COc1cc(CNC(=O)OC23CC4CC(CC(C4)C2)C3)cc(OC)c1 [Compound 53.23]
6,13,"O=C(CCCOc1ccccc1)C(F)(F)F [Compound 23.11, 1,1,1-Trifluoro-5-phenoxy-2-pentanone]"
7,44,CCOC(=O)Nc1ccc(Br)cc1 [Compound 48.2]
8,25,"O=C(c1cccnc1)C(F)(F)CCCCOc1ccccc1 [Compound 89.10, 2,2-Difluoro-6-phenoxy-1-(pyridin-3-yl)-hexan-1-one]"
9,13,CCCCCN(C)C(=O)OC12CC3CC(CC(C3)C1)C2 [Compound 53.45]
10,23,CCOC(=O)C(=O)c1ccccc1 [Compound 91.2]
11,4,"O=C(CCCOc1ccccc1O)C(F)(F)F [Compound 24.8, 1,1,1-Trifluoro-5-[2-(hydroxy)phenoxy]-2-pentanone]"
12,17,O=C(Nc1cccc2ccccc12)OC12CC3CC(CC(C3)C1)C2 [Compound 53.12]
13,29,O=C(Nc1ccc(Br)cc1)OCc1ccco1 [Compound 48.9]
14,6,"Cc1nnc(C(=O)CCCCCCOc2ccccc2)o1 [Compound 65.1, 7-Phenoxy-1-(5-methyl-1,3,4-oxadiazol-2-yl)-heptan-1-one]"
15,21,"O=C(CCCCc1ccccc1)C(F)(F)F [Compound 27.2, 1,1,1-Trifluoro-6-phenyl-2-hexanone]"
16,82,CCOC(=O)C(=O)CCCCOc1cccc(OCc2ccccc2)c1 [Compound 87.1]
17,19,"O=C(CCCCCOc1ccccc1O)C(F)(F)F [Compound 24.10, 1,1,1-Trifluoro-7-[2-(hydroxy)phenoxy]-2-heptanone]"
18,92,"O=C(NCc1ccc(Br)cc1)OCc1ccccc1 [Compound 57.2, (4-Bromobenzyl)carbamic acid benzyl ester]"
19,32,O=C(Nc1ccc(Br)cc1)OCc1ccc2c(c1)OCO2 [Compound 48.8]
20,2,"O=C1c2ccccc2S(=O)(=O)N1CCCCOc1ccccc1 [Compound 83.2, N-(4-Phenoxy-butyl)saccharin]"
21,5,"O=C(CCCc1ccccc1)C(F)(F)F [Compound 27.1, 1,1,1-Trifluoro-5-phenyl-2-pentanone]"
22,29,"O=C(CCCCCCOc1ccc(O)cc1)c1nnc(COCc2ccccc2)o1 [Compound 74.2, 1-(5-benzyloxymethyl-1,3,4-oxadiazol-2-yl)-7-(4-hydroxy-phenoxy)-heptan-1-one]"

row,inhibition [%],Compound
1,21,"O=C(Cc1cccc(-c2cccc(OCc3ccccc3)c2)c1)C(F)(F)F [Compound 35, 1,1,1-Trifluoro-3-(3-benzyloxy-biphenyl-3-yl)-2-propanone]"
2,72,"CC(=O)C(F)(F)CCCCCOc1ccccc1 [Compound 89.4, 3,3-Difluoro-8-phenoxy-2-octanone]"
3,24,Cc1csc(NC(=O)OCCCCOc2cccc(OCc3ccccc3)c2)n1 [Compound 46.4]
4,54,O=C(Nc1ccc(-c2cc(F)cc(F)c2)cc1)OC12CC3CC(CC(C3)C1)C2 [Compound 53.31]
5,12,CSc1ccccc1-c1ccc(NC(=O)OC23CC4CC(CC(C4)C2)C3)cc1 [Compound 53.36]
6,92,"O=C(Nc1ccc(Br)cc1)OCc1ccccc1 [Compound 48.3, (4-Bromophenyl)carbamic acid benzyl ester]"
7,32,O=C(c1nc2ccccc2s1)C(F)(F)c1ccccc1 [Compound 93.8]
8,34,"O=C(CCCCCCOc1ccc(OCc2ccccc2)cc1)C(F)(F)F [Compound 23.4, 1,1,1-Trifluoro-8-[4-(Benzyloxy)phenoxy]-2-octanone]"
9,61,O=C(Nc1ccc(-c2ccccc2Cl)cc1)OC12CC3CC(CC(C3)C1)C2 [53.37%]
10,84,O=C(Nc1ccc(-c2cc(Cl)ccc2Cl)cc1)OC1C2CC3CC(C2)CC1C3 (stereo not shown) [Compound 53.29]
11,55,Cc1cccc(C(=O)C(F)(F)CCCCOc2ccccc2)c1 [Compound 89.8]
12,14,CCCCN(C)C(=O)OC12CC3CC(CC(C3)C1)C2 [Compound 53.46]
13,13,"COc1ccc(CCCCC(=O)C(F)(F)F)cc1 [Compound 27.4, 1,1,1-Trifluoro-6-(4-methoxy-phenyl)-2-hexanone]"
14,72,O=C(Nc1ccc(-c2cc(Cl)cc(Cl)c2)cc1)OC12CC3CC(CC(C3)C1)C2 [Compound 53.30]
15,6,"O=C(CCCOc1ccc(O)cc1)C(F)(F)F [Compound 24.1, 1,1,1-Trifluoro-5-[4-(hydroxy)phenoxy]-2-pentanone]"
16,76,O=C(Nc1cccc(Br)c1)OC1C2CC3CC(C2)CC1C3 (stereo not shown) [Compound 53.13]
17,78,CC12CC3CC(C)(C1)CC(COC(=O)Nc1ccc(Br)cc1)(C3)C2 [Compound 53.19]
18,3,"Oc1cccc(OCCCC(O)(O)C(F)(F)F)c1 [Compound 24.5, 1,1,1-Trifluoro-2,2-dihydroxy-5-[3-(hydroxy)phenoxy]pentane]"
19,22,O=C(OC12CC3CC(CC(C3)C1)C2)N1CCC(c2ccccc2)CC1 [Compound 53.47]
20,88,O=C(Nc1cccc(-c2ccccc2)c1)OC12CC3CC(CC(C3)C1)C2 [Compound 53.27]
21,86,"O=C(c1ccc(-c2ccccc2)cc1)C(F)(F)c1ccccn1 [Compound 96.2, 1-(Biphenyl-4-yl)-2,2-difluoro-2-(pyridin-2-yl)ethanone]"

row,Compound,inhibition [%]
1,"CCCCCCC(C)(C)c1cc(O)c(-c2ccc(NC(=O)OC3CCCCC3)cc2)c(O)c1 [Compound 53.1, 2′,6′-Dihydroxy-4′-(2-methyloctan-2-yl)biphenyl-4-yl carbamic acid cyclohexyl ester]",41
2,"CCOC(=O)C(=O)c1ccc(Br)cc1 [Compound 91.5, Ethyl 2-(4-bromophenyl)-2-oxoacetate]",79
3,"CCCCCCC(C)(C)c1cc(OCOC)c(-c2ccc(NC(=O)OCC)cc2)c(OCOC)c1 [Compound 52.2, 2′,6′-Bis(methoxymethoxy)-4′-(1,1-dimethylheptyl)[1,1′-biphenyl]-4-yl carbamic acid ethyl ester]",92
4,"CCCCCCC(C)(C)c1cc(O)c(-c2ccc(NC(=O)OCC)cc2)c(O)c1 [Compound 53.2, 2′,6′-Dihydroxy-4′-(1,1-dimethylheptyl)[1,1′-biphenyl]-4-yl carbamic acid ethyl ester]",63
5,"CCCCCCC(C)(C)c1cc(OCOC)c(-c2ccc(NC(=O)OCc3ccccc3)cc2)c(OCOC)c1 [Compound 52.3, 2′,6′-Bis(methoxymethoxy)-4′-(1,1-dimethylheptyl)[1,1′-biphenyl]-4-yl carbamic acid benzyl ester]",96
6,"O=C(Nc1ccc(I)cc1)Oc1ccccc1 [Compound 48.6, (4-Iodophenyl)carbamic acid phenyl ester]",52
